# In the supplement of paper PMC3334620:
# Whole data set: some 33,000 sequences, median “E-score (-0.5 to 0.5)” near -0.012, cut for the highest 2% near 0.29. This is one part of the list.
# Target: T1, Ybr033w (UniProt P38073)
# T1 sequence: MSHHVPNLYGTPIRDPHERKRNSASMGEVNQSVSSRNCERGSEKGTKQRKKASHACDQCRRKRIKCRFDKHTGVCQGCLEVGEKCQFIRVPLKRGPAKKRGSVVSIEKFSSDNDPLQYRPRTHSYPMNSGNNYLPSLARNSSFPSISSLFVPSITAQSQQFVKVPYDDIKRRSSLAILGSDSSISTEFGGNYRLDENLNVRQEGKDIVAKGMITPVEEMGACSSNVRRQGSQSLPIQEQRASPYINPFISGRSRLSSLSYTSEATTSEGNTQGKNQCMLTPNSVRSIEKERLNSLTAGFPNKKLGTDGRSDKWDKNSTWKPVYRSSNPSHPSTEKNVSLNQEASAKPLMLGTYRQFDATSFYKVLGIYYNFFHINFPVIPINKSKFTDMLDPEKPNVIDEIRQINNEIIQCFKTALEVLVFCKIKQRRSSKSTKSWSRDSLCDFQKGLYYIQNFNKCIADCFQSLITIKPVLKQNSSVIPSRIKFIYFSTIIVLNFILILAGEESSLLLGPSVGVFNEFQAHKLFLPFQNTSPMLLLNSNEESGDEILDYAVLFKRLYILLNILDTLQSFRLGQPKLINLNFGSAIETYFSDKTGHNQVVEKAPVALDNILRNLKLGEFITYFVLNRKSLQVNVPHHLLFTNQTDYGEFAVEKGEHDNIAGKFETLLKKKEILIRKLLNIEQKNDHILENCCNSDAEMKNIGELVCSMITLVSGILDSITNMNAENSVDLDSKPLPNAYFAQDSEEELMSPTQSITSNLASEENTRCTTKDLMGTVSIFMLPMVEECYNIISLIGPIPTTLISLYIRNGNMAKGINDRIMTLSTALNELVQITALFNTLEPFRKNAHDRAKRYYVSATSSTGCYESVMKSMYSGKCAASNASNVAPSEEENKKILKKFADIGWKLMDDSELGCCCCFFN
# Test: PBM E-score (8-mer binding enrichment) (E-score (-0.5 to 0.5)); higher = stronger / more preferred TF binding; most listed sequences are background and not binding sites
# Settings: protein concentration: 200 nM; construct: GST-full length
# Protocol: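 Universal 'all 10-mer' protein binding microarrays (Agilent AMADID 015681) probed with GST-tagged S. cerevisiae TFs (full-length or DBD) made by in vitro transcription/translation (PURExpress), about 100-200 nM. Bound TF was detected with fluorescent anti-GST. Each ungapped 8-mer (which stands for itself and its reverse complement) is scored by the PBM enrichment score (E-score), a modified Wilcoxon-Mann-Whitney statistic from -0.5 to +0.5, computed with the Universal PBM Analysis Suite. Scale: above 0.35 generally sequence-specific binding.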
row,Sequence,PBM E-score
1,AGTGTTGG,-0.0403
2,TAGGAAGA,0.152
3,CGAGTACG,-0.0987
4,CAACTACG,0.214
5,GAGGCGCC,-0.209
6,CGTTGTTA,0.0537
7,TATGCGGA,0.0987
8,ACGGATTC,0.114
9,CGCACGCA,-0.0877
10,AGCTCGGA,-0.249
11,GTATTTCA,0.235
12,CAGGGACA,-0.0495
13,GCTGGCCA,-0.183
14,ACAGACAA,0.259
15,CCTACTTA,0.0574
16,AAGTCTCT,0.0317
17,AGACGGGC,-0.141
18,CAATGTGA,0.218
19,GAGCTCAC,-0.27
20,ATCTACAG,0.128
21,ATCGGTAA,0.171
22,AGGCACAG,-0.0663

row,Sequence,PBM E-score
1,AGCCTTGA,-0.0767
2,CTAGGGTC,-0.177
3,CACGGGCG,-0.157
4,AGTTGCTA,0.253
5,CAGACACA,-0.0429
6,CGAGGCAA,-0.0952
7,CGAATAAA,0.145
8,TCACTCGA,0.0276
9,AATCAGCT,0.185
10,CAAACCCC,-0.2
11,CGTGACGC,-0.0223
12,AACAGCGT,0.042
13,TGCTAGAA,0.0898
14,CTGAGGCC,-0.24
15,GTCTCCTA,-0.236
16,GATAATGC,0.115
17,ATTAACTG,0.333
18,GATCGGAA,0.0275
19,GAATAAGC,0.189
20,ACAAAGAA,0.185
21,GTGGGTCA,-0.155
22,AAGGCATA,0.0942

row,Sequence,PBM E-score
1,AAGGCAGT,-0.0187
2,AAGCCGTA,0.125
3,AGACCGAA,0.0566
4,GAATAGAA,0.278
5,CTGCTAAG,-0.132
6,GATATCGC,0.119
7,ACGCATGG,-0.123
8,ACGTACGG,-0.153
9,CGAGGGCA,-0.0861
10,GCACACGA,-0.124
11,ATCGCTAA,0.0959
12,GGAGGCAC,-0.224
13,CACCTGTA,-0.0102
14,ACTTACCG,0.137
15,ATACAAAG,0.298
16,ACACAACG,0.0896
17,ATCGGTGC,-0.149
18,AATCATTC,0.147
19,ACTAGACC,-0.0433
20,AACTCGCC,-0.00919
21,CTGCATTC,0.13
22,AAGTCGTC,-0.099

row,Sequence,PBM E-score
1,CAACACAC,-0.0133
2,GACAGAGC,-0.0625
3,AGAGGGTC,-0.246
4,AGGGAAAA,0.296
5,AAAAAGGG,-0.0938
6,GCTACCCA,-0.222
7,AACTGGGA,0.00134
8,AGTGTAGA,0.0489
9,TACCCCTA,-0.107
10,GGTCGGAC,-0.19
11,CGCAAGCG,-0.0738
12,AGCCGTTC,-0.222
13,ATATCAAA,0.241
14,TAGATCTA,0.19
15,CCTCAGGA,-0.0719
16,ATCTAGAA,0.214
17,CCTTCTGA,-0.0544
18,ACTCTTTC,-0.0908
19,ACTGGGTG,-0.111
20,GCTCGCAA,0.0873
